The values below come from paper PMC10282087.

The chains behind the UniProt entries cited, without tags or fusion partners. Where a name states a change or a piece, a line headed by the entry shows the natural chain unless it says otherwise. A line that says so, or that is headed by a name, gives the form on record, which may keep a tag or linker. Residues count along the entry.
UniProt Q14145: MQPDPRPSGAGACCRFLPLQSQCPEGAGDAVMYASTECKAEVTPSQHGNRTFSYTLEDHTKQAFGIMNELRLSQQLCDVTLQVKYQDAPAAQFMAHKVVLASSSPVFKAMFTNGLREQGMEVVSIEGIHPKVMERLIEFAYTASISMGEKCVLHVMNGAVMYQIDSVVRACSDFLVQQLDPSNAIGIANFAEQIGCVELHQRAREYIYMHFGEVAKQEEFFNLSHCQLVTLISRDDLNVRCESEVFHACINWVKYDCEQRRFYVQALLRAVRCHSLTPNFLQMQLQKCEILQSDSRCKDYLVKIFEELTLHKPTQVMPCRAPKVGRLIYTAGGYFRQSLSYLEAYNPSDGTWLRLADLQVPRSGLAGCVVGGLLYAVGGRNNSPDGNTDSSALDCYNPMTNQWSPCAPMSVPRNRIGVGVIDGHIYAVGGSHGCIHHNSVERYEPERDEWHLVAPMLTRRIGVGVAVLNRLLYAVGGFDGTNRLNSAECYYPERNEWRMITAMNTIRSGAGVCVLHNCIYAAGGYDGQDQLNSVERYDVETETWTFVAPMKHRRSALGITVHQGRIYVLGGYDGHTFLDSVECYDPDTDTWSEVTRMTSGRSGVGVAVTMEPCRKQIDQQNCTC
FLAG-tagged BTB domain of KEAP1: residues 77-149 of Q14145
UniProt Q9Z2X8: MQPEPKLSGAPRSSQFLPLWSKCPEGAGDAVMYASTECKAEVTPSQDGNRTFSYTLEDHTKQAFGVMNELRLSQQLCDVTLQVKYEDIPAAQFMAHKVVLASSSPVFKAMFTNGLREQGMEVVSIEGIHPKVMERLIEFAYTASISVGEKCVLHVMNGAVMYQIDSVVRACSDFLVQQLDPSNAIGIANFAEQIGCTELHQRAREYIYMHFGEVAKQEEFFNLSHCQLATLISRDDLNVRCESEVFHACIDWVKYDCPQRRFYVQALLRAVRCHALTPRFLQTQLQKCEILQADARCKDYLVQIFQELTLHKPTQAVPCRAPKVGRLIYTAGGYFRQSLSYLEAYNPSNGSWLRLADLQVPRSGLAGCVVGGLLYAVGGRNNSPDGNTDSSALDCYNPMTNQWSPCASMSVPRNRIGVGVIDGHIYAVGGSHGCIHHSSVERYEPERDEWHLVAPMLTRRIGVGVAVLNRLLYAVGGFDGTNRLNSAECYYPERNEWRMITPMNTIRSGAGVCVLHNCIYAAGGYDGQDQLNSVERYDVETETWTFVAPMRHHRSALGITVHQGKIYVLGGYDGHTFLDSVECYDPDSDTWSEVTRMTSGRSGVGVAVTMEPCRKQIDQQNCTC

Test [1] addresses FLAG-tagged BTB domain of KEAP1 (human) (UniProt Q14145). Kind of test: co-IP; HEK293T cells expressing FLAG-tagged proteins or domains, lysed in NETN buffer; Flag beads; washed with NETN at least 3 times; western blotting.
In test [2] the target is FLAG-tagged KEAP1 (human) (UniProt Q14145). The test is described as above.
In the next test the target is GST-USP25 (human) (UniProt Q9UHP3). In words: pull-down; about 25 or 50 ug of purified beads-bound GST-USP25 incubated with cell lysates at 4 C overnight; washed five times with GST buffer (1 mM EDTA, pH8.0 tris-HCl, 200 mM NaCl, 1% Triton X-100); western blotting; only the target purified.
Test [3] concerns the target FLAG-tagged USP25 (ubiquitin-specific peptidase 25) (human) (UniProt Q9UHP3). Kind of test: co-IP; HEK293T cells expressing FLAG-tagged proteins or domains, lysed in NETN buffer; Flag beads; washed with NETN at least 3 times; western blotting.
Test [4] has as its target KEAP1, endogenous in mouse liver (mouse (endogenous in liver)) (UniProt Q9Z2X8). In words: co-IP; endogenous USP25 or KEAP1 immunoprecipitated from liver homogenates of WT mice treated with or without APAP (300 mg/kg, i.p.) for 6 h; western blotting.

Results are given in words; binding and its absence hold for the method and conditions named. Binding seen in cells or lysates may run through a third protein. Some results given as binding are weak or reduced against the parent protein; the word gives no strength.

In the case of “USP25, endogenous in HEK293T cells (from UniProt Q9UHP3 1-1055) (enzyme)”, the binding entry in test [1] is reported as “no binding”; in test [2] it was “binds”.
As to “FLAG-tagged KEAP1 (from UniProt Q14145 1-624)”, in the test with GST-USP25 (human), the binding entry is recorded as “binds”.
Regarding “Kelch-like ECH-associated protein 1 (KEAP1), endogenous in HEK293T cells (from UniProt Q14145 1-624)”, the binding result in test [3] was “binds”.

B1: USP25, endogenous in mouse liver (enzyme, UniProt P57080 1-1055)
chain: MTVEQNVLQQSAAQKHQQTFLNQLREITGINDAQILQQALKDSNGNLELAVAFLTAKNAKTPPQEETGYYQTALPGNDRYISVGSQADANVIDLTGDDKDDLQRAIALSLAESNRAFRETGITDEEQAISRVLEASIAENKACLKRTPIEVWRDSRNPYDRKRQEKAPVGLKNVGNTCWFSAVIQSLFNLLEFRRLVLNYKPPSNAQDLPRNQKEHRNLPFMRELRYLFALLVGTKRKYVDPSRAVEILKDAFKSNDSQQQDVSEFTHKLLDWLEDAFQMKAEEETDEEKPKNPMVELFYGRFLAMGVLEGKKFENTEMFGQYPLQVNGFKDLHECLEAAMIEGEIESLHSDNSGKSGQEHWFTELPPVLTFELSRFEFNQALGRPEKIHNKLEFPQVLYLDRYMHRNREITRIKREEIKRLKDYLTVLQQRLERYLSYGSGPKRFPLVDVLQYALEFASSKPVCTSPVDDIDASSSASGPLPSQSLPSTTEQQGPCASDLPGSSSPASGAALPLRSVIHKPFTQSRIPPDLPMHPAPRHITEEELCVLESCLHRWRTEIENDTRDLQESISRIHRTIELMYSDKSMIQVPYRLHAVLVHEGQANAGHYWAYIFDHRESRWMKYNDIAVTKSSWEELVRDSFGGYRNASAYCLMYIDDKAQFLIQEEFNKETGQALVGMETLPPDLRDFVEEDNQRFEKELEEWDTQLAQRSLQEKLLAAPKLREAEASATTAQAGGADYLEQPSRSDLSKHWKEETLRVIAKASHDLEDKGPETVLQSAIKLEYSRLVKLAQEDTPPETDYRLHHVLVYFIQNQAPKKIIEKTLLEQFGDRNLSFDERCHNIMKVAQAKLEMIKPEEVNLEEYEEWHADYKKFRETTMYLITGLENFQRESYIDSLLFLLCAYQNNKELLSKGPYRGHDGELISHYRRECLLKLNEQAAELFESGEDGDVNNGLIIMNEFIVPFLPLLLVDDMEEKDILAVEDMRNRWCSYLGQEMEANLQEKLTDFLPKLLDCSTEIKGFHEPPKLPSYSAHELCERFARIMLSLSRTPADGR
On to B1, for which the binding result in test [4] is “binds”.
